Measurements reported in publication PMC6919601, “Identification of Plasmodium dipeptidyl aminopeptidase allosteric inhibitors by high throughput screening” (PLoS ONE, 2019).
Hit rate of the full screen: of about 110,000 compounds, about 230 (0.21%) showed an effect of 50% or more. Some of the results follow.

target: DPAP1 (Plasmodium falciparum, UniProt Q8IIJ9); experiment: primary screen, percent inhibition; read by cleavage of a fluorogenic dipeptide substrate; higher = more effect of the substance; parameters: species or system P. falciparum D10 trophozoite lysates; single well
Sequence (Q8IIJ9 whole entry, looked up): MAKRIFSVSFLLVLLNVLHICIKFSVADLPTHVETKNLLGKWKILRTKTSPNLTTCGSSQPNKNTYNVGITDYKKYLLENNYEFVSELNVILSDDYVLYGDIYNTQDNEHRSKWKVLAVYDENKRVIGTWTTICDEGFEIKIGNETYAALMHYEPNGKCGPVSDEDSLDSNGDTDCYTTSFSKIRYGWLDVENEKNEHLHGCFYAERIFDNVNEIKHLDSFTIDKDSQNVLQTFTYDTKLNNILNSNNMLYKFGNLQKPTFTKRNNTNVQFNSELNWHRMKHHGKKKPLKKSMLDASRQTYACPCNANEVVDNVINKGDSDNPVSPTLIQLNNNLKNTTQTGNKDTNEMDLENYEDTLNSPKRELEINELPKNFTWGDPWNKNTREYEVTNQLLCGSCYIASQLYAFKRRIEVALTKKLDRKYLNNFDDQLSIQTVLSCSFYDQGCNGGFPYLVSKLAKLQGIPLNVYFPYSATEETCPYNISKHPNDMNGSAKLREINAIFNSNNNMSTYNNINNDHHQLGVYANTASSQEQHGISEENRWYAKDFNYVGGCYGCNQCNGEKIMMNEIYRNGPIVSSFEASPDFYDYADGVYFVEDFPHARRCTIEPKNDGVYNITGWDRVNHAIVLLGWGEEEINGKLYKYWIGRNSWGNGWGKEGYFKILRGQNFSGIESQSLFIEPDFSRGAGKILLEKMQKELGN
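Note: 30 min substrate incubation versus DMSO and 10 µM JCP410 controls.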

Row | SMILES | % Inhibition @ 10 uM [%]
1 | Cn1cc(Cl)c(C(=O)N2CCN(c3ncccn3)CC2)n1 | 2.7
2 | CC(=O)Nc1ccc(/C=C2\SC(=O)N(Cc3ccc(C)cc3)C2=O)cc1 | -1.51
3 | COc1cccc(C(=O)Nc2c(C)cc(C)cc2C)c1 | -5.82
4 | COc1ccc(NC(=O)C2=C(C)NC(=O)NC2c2cccc(Br)c2)cc1 (stereo not drawn) | 0.993
5 | CCCCN1CC(C(=O)NCCc2ccccc2)CC1=O (stereo not drawn) | -0.0542
6 | Cc1nnc(N2CCCC(C(=O)N3CCOCC3)C2)c2nn(-c3ccccc3)c(C)c12 (stereo not drawn) | -2.5
7 | CCC1NC2(C(=O)N(C)c3ccccc32)C2C(=O)N(Cc3ccccc3)C(=O)C12 (stereo not drawn) | -2.09
8 | C[C@H](C[C@H](NC(=O)OCc1ccccc1)C(=O)NCC#N)c1c(F)cccc1F | -6.56
9 | Cc1ccc(C2CC(=O)NC3=C2C(=O)CC(c2ccc(F)cc2)C3)cc1 (stereo not drawn) | 1.31
10 | CCc1ccccc1NC(=O)c1ccccc1Br | -1.86
11 | CCCC(=O)Nc1noc2ccccc12 | -4.64
12 | CSc1c(CN2CCN(C)CC2)c2ccccc2n1C | 0.956
13 | CC(C)(C)c1ccc(/C=c2\sc3nc(-c4cccnc4)nn3c2=O)cc1 | -3.33
14 | CC(=O)c1cccc(NC(=O)/C(=C/c2cccc3ccccc23)NC(=O)c2ccccc2)c1 | 3.72
15 | COc1ccc(CNC(=O)CN(c2cccc(C)c2)S(=O)(=O)c2ccccc2)cc1 | -6.02
16 | COc1ccc(OC)c(CNC(=O)CCc2c(C)nc3c4cccnc4nn3c2C)c1 | -5.25
17 | N#CCNC(=O)[C@H](NC(=O)OCc1ccccc1)C1CCCCC1 | 0.079
18 | CCC(C)NC(=O)COc1ccc2c(c1)C(=O)CC(C)(C)O2 (stereo not drawn) | -4.07
19 | COc1ccc(Cl)cc1NC(=O)c1ccccc1C | 0.526
20 | CCCNC(=O)CN(Cc1ccc(C)cc1)S(=O)(=O)c1ccc(Br)cc1 | 4.39
21 | Cc1cccc(Nc2nc(-c3ccccn3)cs2)c1 | 3.61

Row | SMILES | % Inhibition @ 10 uM [%]
22 | Cc1ccc(C)c(C(C)(C)CC(=O)O)c1 | 5.37
23 | Cc1ccccc1CS(=O)(=O)Cc1ccc(C(=O)NCc2cccnc2)o1 | -0.0542
24 | O=C(CSc1nnnn1-c1ccccc1)NCCOC12CC3CC(CC(C3)C1)C2 | -3.04
25 | CCC(C)[C@H](NC(=O)c1ccncc1)C(=O)N[C@@H](CCc1ccccc1)C(=O)CO (stereo partly drawn) | 0.744
26 | COc1ccc(OC)c(C2C(C#N)=C(N)Oc3[nH]nc(-c4ccc(F)cc4)c32)c1 (stereo not drawn) | 0.343
27 | Cc1nc2nc(C3CCN(C(=O)OC(C)(C)C)CC3)nn2c(C)c1CCC(=O)O | -2.17
28 | CCC(CC)c1nn2cc(-c3ccc(C)c(C)c3)nc2s1 | 9.89
29 | CCN(Cc1ccccc1)C(=O)c1ccccc1Cl | 2.22
30 | CC(=O)Nc1ccc(NS(=O)(=O)c2ccccc2C)cc1 | 3.48
31 | O=C(CN1C(=O)c2ccccc2C1=O)NCCc1ccccc1F | -3.21
32 | O=C(O)CSc1nnc2n(-c3ccccc3)c3ccccc3n12 | -2.21
33 | COc1cccc(CN2CCN(c3ccc(C(C)=O)cc3)CC2)c1 | -2.02
34 | Cc1ccc2onc(CNC(=O)NCCc3c[nH]c4ccccc34)c2c1 | -4.02
35 | CN(Cc1ccccc1)CC(O)c1ccccc1 (stereo not drawn) | -3.5
36 | O=[N+]([O-])c1ccc(S(=O)(=O)Nc2nccs2)cc1 | -0.687
37 | CCCS(=O)(=O)n1nc(-c2ccc(OCC)cc2)cc1N | 12.6
38 | O=C1CC(N2CCN(C/C=C/c3ccccc3)CC2)C(=O)N1c1cccc(Br)c1 (stereo not drawn) | 3.53
39 | Cc1cc(C)cc(OCc2cc(=O)n3oc(C)cc3n2)c1 | -7.65
40 | O=C1CCCN1CCCNc1ncnc2c1c(-c1ccccc1)cn2-c1ccc(Cl)cc1 | 3.36
41 | O=C(NCCCc1ccccc1)C(=O)NCC(c1cccnc1)N1CCOCC1 (stereo not drawn) | -3.74
42 | O=C(CN1CCCN(Cc2ccc(F)cc2Cl)C1=O)NCc1ccc(Cl)cc1 | 3.93

Row | SMILES | % Inhibition @ 10 uM [%]
43 | CCc1ccc(CN2CCc3c([nH]c4ccccc34)C2)cc1 | 3.1
44 | O=C(CC(Nc1ccc(Br)cc1)c1ccccc1)c1ccccc1 (stereo not drawn) | 4.33
45 | CCCCNc1nc2c(c(=O)n(C)c(=O)n2C)n1CC(O)COc1ccccc1 (stereo not drawn) | 2.31
46 | OCCN1CCN(Cc2ccc(Cl)c(Cl)c2)CC1 | 0.247
47 | O=C(O)c1ccccc1-c1ccc(C(F)(F)F)cc1 | 0.219
48 | CCOc1cc(C(=O)Nc2nn3c(-c4ccc(C)cc4)nnc3s2)cc(OCC)c1OCC | -1.26
49 | CCOC(=O)c1cc(C)n(CC2CCC(C(=O)N(C)C3CCCCC3)CC2)c1C (stereo not drawn) | 0.453
50 | N#CCNC(=O)c1nn2c(C(F)(F)F)cc(-c3ccccc3)nc2c1Br | -9.15
51 | COC(=O)c1ccc(Cl)c(-c2ccc(C(=O)N[C@@H](C[C@H](C)c3ccccc3)C(=O)NC3(C#N)CCN(CC(F)(F)F)CC3)cc2)c1 | -1.5
52 | COC(=O)C1=CN(CCc2ccc(OC)cc2)C=C(C(=O)OC)C1c1ccccc1C(F)(F)F | 5.17
53 | Fc1ccc2c(c1)[C@H]1OCC[C@H]1[C@@H](c1ccco1)N2 | -0.872
54 | COc1ccc(N(CC(N)=O)S(=O)(=O)c2ccc(C)cc2)cc1Cl | -1.95
55 | CCOCCCNC(=O)c1ccc2c(c1)ncn2-c1cccc(F)c1 | 2.8
56 | CC(C)(C)c1ccc(S(=O)(=O)Nc2noc3ccccc23)cc1 | -1.11
57 | COc1cc(OC)nc(-n2[nH]c(=O)c3ccccc3c2=O)n1 | 0.343
58 | O=C(COc1ccc(S(=O)(=O)N2CCCC2)cc1)N1CCCCC1 | -8.59
59 | CCOc1cc(C2CC(=O)NC3=C2C(=O)CC(c2ccc(OC)c(OC)c2)C3)cc(Cl)c1O (stereo not drawn) | -3.51
60 | C#CCOC(=O)c1ccc(S(=O)(=O)N2CCCCC2)cc1 | 3.15
61 | COc1ccccc1C(=O)Nc1sc(-c2ccccc2)cc1C(=O)O | 6.34
62 | O=C(NCCC1=CCCCC1)c1ccc(Br)o1 | -1.73
63 | COc1ccc2c(c1)CCc1c(C(=O)Nc3c(C)nn(Cc4ccc(F)cc4)c3C)noc1-2 | 0.0221
